# Experimental data from PubChem BioAssay AID588855 (National Center for Advancing Translational Sciences (NCATS), 2011).
# Where “and” joins values, the source holds several entries; their conditions need not be identical. Equal entries are not always repeated. Hit rate of the full screen: of about 410,000 compounds, about 5,000 (1.2%) were called active. Inconclusive means that the source gave no clear call. Such entries were picked first, then a sample of the others. Calls follow the shape of the dose curve; as a rule, active = well fitted inhibition curve with a large enough effect; inconclusive = small, poorly fitted or top-dose-only effect; inactive = no such curve, though single readings can be large or run the other way. A potency beside an inconclusive call is a rough fit, not a confirmed value.
# Experiment: qHTS for Inhibitors of TGF-b; also: nearly all actives have a fitted effect of over 65% in size
# Settings: HepG2 CAGA-GFP TGF-b/SMAD3 reporter, GFP fluorescence, 18 h, TGF-beta stimulated, 500 pg/mL final; series mostly up to 46.1 µM; activity, negative = inhibition: at the top concentration
# Outline: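 HEPG2 CAGA-GFP cells (1000/well, DMEM with 1% FBS) were pre-incubated 2 h at 37 degrees C, given compound by pin tool, then stimulated with TGF-beta at 500 pg/mL final for 18 h before per-cell GFP fluorescence imaging.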
# % is scaled to controls: 0 for no effect and ±100 for the full control effect; potency is read from the fitted curve at half-maximal effect; tags tell the direction and shape of the fitted curve.
SMILES,Potency,"activity, negative = inhibition"
O=C(CN1C(=O)COc2ccc(S(=O)(=O)NC3CCCC3)cc21)Nc1ccc(Cl)cc1F,"inconclusive: 17.8 µM [inhibitor, partial curve, poor fit]",–
O=C(COc1ccc(-c2ccccc2)cc1)N/N=C/c1cc(O)ccc1Br,active: 12.6 µM,–
COc1ccccc1C(=O)Nc1nc2nc(C)cc(=O)n2[nH]1,"inconclusive: 0.112 µM [inhibitor, full curve, poor fit]",–
CC(=O)N1c2ccc(S(=O)(=O)N3CCCC(C(=O)NCc4ccccc4Cl)C3)cc2CC1C (stereo unspecified),"inconclusive: 17.8 µM [inhibitor, single point]",–
O=C1C(SCCO)=C(SCCO)C(=O)c2ccccc21,active: 7.08 µM and active: 3.16 µM,–
c1ccc(Cc2nc3ccccc3o2)cc1,–,inactive: -19.1%
Cc1ccc(NC(=O)C2CSC3(C)CCC(=O)N23)cc1S(=O)(=O)N1CCCCCC1 (stereo unspecified),"inconclusive: 35.5 µM [inhibitor, partial curve, poor fit]",–
COc1cc(OC)cc(-c2sc3ccc(OC)cc3c2C#CC(C)(C)O)c1,"inconclusive: 22.4 µM [inhibitor, single point]",–
COc1cc(C(c2c(C)[nH][nH]c2=O)c2c(C)[nH][nH]c2=O)ccc1OCc1ccc([N+](=O)[O-])cc1,–,inactive: -12.3%
Cc1cc(O)c(C(C)C)cc1N=Cc1ccc(N(C)C)cc1,"inconclusive: 35.5 µM [inhibitor, single point]",–
CCOC(=O)c1c(NC(=O)CCS(=O)(=O)c2ccccc2)sc2c1CCN(C)C2,"inconclusive: 15.8 µM [inhibitor, partial curve, poor fit]",–
Cc1ccc(NC(=O)c2cc(C(=O)c3cc(Cl)ccc3O)cn(-c3ccc(C)cc3)c2=O)cc1,active: 7.94 µM,–
CCOC(=O)c1cccc(NC(=O)C(C)n2nc(C)c3c(C)n(-c4ccccc4)nc3c2=O)c1 (stereo unspecified),"inconclusive: 20 µM [inhibitor, single point]",–
O=C(N[C@@H](Cc1ccccc1)c1nc2ccccc2[nH]1)c1cc([N+](=O)[O-])ccc1Cl,"inconclusive: 31.6 µM [inhibitor, single point]",–
O=C(OC1CCCCC1=O)c1ccc(F)c(S(=O)(=O)N2CCOCC2)c1 (stereo unspecified),"inconclusive: 3.55 µM [inhibitor, single point]",–
O=C(CSc1nc(NS(=O)(=O)c2ccccc2)cc(=O)[nH]1)Nc1ccc(F)cc1,–,inactive: -8.86%
O=S(=O)(NCc1ccccc1)c1ccc(S(=O)(=O)NCC2CCCO2)cc1 (stereo unspecified),–,inactive: 4.2%
Cc1oc(-c2ccccc2F)nc1CS(=O)(=O)CC(=O)N1CCN(c2ccccc2)CC1,"inconclusive: 35.5 µM [inhibitor, single point] and inconclusive: 89.1 nM [inhibitor, full curve, poor fit]",–
CSc1c(C#N)c(N)nc2sc(C(=O)c3ccccc3)c(N)c12,–,inactive: 27.1%
O=C(CCl)NC(Cc1ccccc1)C(=O)OCC(=O)c1ccc(-c2ccccc2)cc1 (stereo unspecified),"inconclusive: 28.2 µM [inhibitor, single point]",–
Cc1ccc([N+](=O)[O-])cc1NC(=O)CN(c1ccccc1)S(=O)(=O)N(C)C,"inconclusive: 20 µM [inhibitor, single point]",–

SMILES,Potency,"activity, negative = inhibition"
COc1cc(/C=C/C(=O)CC(=O)/C=C/c2ccc(O)c(OC)c2)ccc1O,"inconclusive: 22.4 µM [inhibitor, partial curve, poor fit] and inconclusive: 35.5 µM [inhibitor, single point]",–
CCc1cc2c(=O)n(CCC(C)C)c(=S)[nH]c2s1,"inconclusive: 2.51 µM [inhibitor, partial curve, poor fit]",–
CCNC(=O)C1(C)CCCN(Cc2ccccc2-c2ccccc2)C1 (stereo unspecified),"inconclusive: 3.98 µM [inhibitor, full curve, poor fit]",–
Cc1ccc(/C=N/NC(=O)c2cc(-c3cccnc3)nc3ccccc23)cc1,"inconclusive: 3.16 µM [inhibitor, single point]",–
CCOC(=O)c1c(-c2cccc([N+](=O)[O-])c2)csc1NC(=O)C1CCCCC1,–,inactive: 9%
Cc1cccc(N2CCN(S(=O)(=O)c3ccc(-c4cnc(C5CC5)o4)cc3)CC2)c1C,"inconclusive: 20 µM [inhibitor, partial curve, poor fit]",–
COc1cc(/C=C2\SC(N)=NC2=O)ccc1O,"inconclusive: 35.5 µM [inhibitor, single point]",–
COc1ccc2c(c1)c1ncn(Cc3ccc(F)cc3)c(=O)c1n2C,"inconclusive: 35.5 µM [inhibitor, single point]",–
CCOC(=O)c1ccc(N2CCOCC2)c(NS(=O)(=O)c2ccc(F)cc2)c1,–,inactive: -1.48%
O=C(Nc1ccc2oc(-c3cccnc3)nc2c1)c1ccc([N+](=O)[O-])o1,"inconclusive: 3.98 µM [inhibitor, partial curve, poor fit]",–
O=C(c1ccc(CS(=O)c2cccc(Cl)c2)o1)N1CCOCC1 (stereo unspecified),–,inactive: 15.7%
COc1ccc(S(=O)(=O)N(C)CC(=O)Nc2ccccc2OC)cc1C,"inconclusive: 2.51 µM [inhibitor, full curve, poor fit]",–
COC(=O)C1CCN(c2nc3ccccc3nc2C(C#N)C(=O)NCCc2ccccc2)CC1 (stereo unspecified),–,inactive: -4.71%
Cc1ccc(-n2c(C)cc(/C=N/NC(=O)CC3(C)OCCO3)c2C)cc1,–,inactive: 3.4%
Cc1ccccc1NC(=O)c1cc(S(=O)(=O)c2ccccc2)ccc1Cl,"inconclusive: 35.5 µM [inhibitor, single point]",–
CCc1ccccc1NC(=O)C1CCN(S(=O)(=O)c2ccc(N3CCCC3=O)cc2)CC1,–,inactive: 2.79%
COC(=O)c1cc(NC(=O)c2cc3c(-c4ccccc4F)nn(C)c3s2)cc(C(=O)OC)c1,–,inactive: 3.57%
CCC(=O)Nc1cccc(NC(=S)NC(=O)c2cc3ccccc3o2)c1,–,inactive: 7.67%
O=C(CN1CCN(c2ccccc2O)CC1)Nc1ccc([N+](=O)[O-])cc1Br,–,inactive: 1.22%
O=C(NNC(=O)c1cc2ccccc2cc1O)Nc1ccccc1F,"inconclusive: 28.2 µM [inhibitor, single point]",–
